Changes are numbered by the printed parent chain. Results are given in words; binding and its absence hold for the method and conditions named. In cells and extracts the contact can be indirect. Some entries that bind do so weakly or less than the wild type.
How the values were obtained:
Test in all cases: pull-down; SFB-tagged bait expressed in cells (HEK293T/293T where named), lysate in NETN buffer, streptavidin Sepharose beads 1 h at 4°C, endogenous prey detected by Western blot; Fig 3B/3L control shRNA cells; Fig 4C control, PPM1G and B56δ shRNA cells
SFB-PPM1G A237D (human) = target: T1, SFB-PPM1G A237D (human) (UniProt O15355)
T1 sequence: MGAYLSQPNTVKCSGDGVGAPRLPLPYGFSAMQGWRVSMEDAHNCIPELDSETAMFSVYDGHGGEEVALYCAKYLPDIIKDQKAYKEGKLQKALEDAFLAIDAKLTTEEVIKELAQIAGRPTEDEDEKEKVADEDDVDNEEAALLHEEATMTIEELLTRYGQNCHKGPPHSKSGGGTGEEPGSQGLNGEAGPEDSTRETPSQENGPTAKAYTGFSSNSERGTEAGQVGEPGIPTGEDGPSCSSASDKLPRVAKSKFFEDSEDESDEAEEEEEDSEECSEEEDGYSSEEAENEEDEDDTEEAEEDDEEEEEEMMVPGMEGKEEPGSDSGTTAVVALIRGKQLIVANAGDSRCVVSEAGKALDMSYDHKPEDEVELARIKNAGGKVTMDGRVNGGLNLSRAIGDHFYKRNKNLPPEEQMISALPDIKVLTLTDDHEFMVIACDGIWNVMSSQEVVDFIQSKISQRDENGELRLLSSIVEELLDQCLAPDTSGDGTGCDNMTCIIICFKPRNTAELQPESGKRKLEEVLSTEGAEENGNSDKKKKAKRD

By UniProt entry, the sequences of proteins in these tests, tags left out.
UniProt P35221: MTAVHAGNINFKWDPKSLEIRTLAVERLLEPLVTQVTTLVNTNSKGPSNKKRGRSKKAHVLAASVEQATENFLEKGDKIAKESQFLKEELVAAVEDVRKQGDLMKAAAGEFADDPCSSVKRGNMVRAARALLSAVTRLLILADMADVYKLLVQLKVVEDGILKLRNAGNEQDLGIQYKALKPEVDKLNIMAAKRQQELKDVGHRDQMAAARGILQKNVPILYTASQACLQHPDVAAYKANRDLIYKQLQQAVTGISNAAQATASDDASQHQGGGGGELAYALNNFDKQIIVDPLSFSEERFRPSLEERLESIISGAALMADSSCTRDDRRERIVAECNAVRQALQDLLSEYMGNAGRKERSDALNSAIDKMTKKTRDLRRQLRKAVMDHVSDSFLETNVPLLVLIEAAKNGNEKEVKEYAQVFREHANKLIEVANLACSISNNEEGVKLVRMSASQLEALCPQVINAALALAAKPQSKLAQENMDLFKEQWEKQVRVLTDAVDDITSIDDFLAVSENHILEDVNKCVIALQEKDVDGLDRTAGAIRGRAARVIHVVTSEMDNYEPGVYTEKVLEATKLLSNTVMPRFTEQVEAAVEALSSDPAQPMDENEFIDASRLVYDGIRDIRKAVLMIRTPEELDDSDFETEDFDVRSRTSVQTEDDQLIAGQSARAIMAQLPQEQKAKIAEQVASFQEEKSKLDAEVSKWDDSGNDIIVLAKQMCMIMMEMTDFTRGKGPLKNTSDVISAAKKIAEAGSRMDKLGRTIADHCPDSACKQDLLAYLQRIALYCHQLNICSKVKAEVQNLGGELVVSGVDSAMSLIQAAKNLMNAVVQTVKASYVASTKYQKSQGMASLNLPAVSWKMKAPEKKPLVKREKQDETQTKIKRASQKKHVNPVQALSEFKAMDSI

SFB-PPM1G A252S (human) = target: T2, SFB-PPM1G A252S (human) (UniProt O15355)
T2 sequence: T1 sequence with D237A, A252S

SFB-PPM1G S173C (human) = target: T3, SFB-PPM1G S173C (human) (UniProt O15355)
T3 sequence: T1 sequence with S173C, D237A

[1] = target: T4, SFB-PPM1G full length (FL) (human) (UniProt O15355)
T4 sequence: T1 sequence with D237A

binding (SFB-PPM1G A237D (human)): binds | binding (SFB-PPM1G A252S (human)): binds | binding (SFB-PPM1G S173C (human)): binds | binding [1]: binds
Substance: endogenous α-catenin (from UniProt P35221 1-906)

Reference: paper PMC6776900, “PPM1G forms a PPP‐type phosphatase holoenzyme with B56δ that maintains adherens junction integrity” (EMBO Reports, 2019)
